# Laboratory results from the RNAGym collection of RNA variant scans (doi:10.7554/elife.90254).
# Read counts are not given, so values of variants with three or more changes are uncertain.
# B1: LINE1-mini (parent)
# chain: GGCAGAGCUCAACACAGCGUGGCAAAGUGGCUGUGGCUAGACUGCC
# Variants of: B1
# Experiment: self-cleavage, relative activity (ratio to wild type); higher = more cleavage; in vitro, sequencing; the parent is a self-cleaving ribozyme
row,Variant,self-cleavage
1,U20A C23U U28C G30U C45U,0.86
2,G2U C8A A25C U38A,0.01
3,G5C U9C C23G A24G,0.04
4,G22U U28G G35C,0.26
5,G7C A26C G29U,0.03
6,C13U G33C U38C C42U,0.02
7,G5A G7C G35U C45A,0.21
8,C13A C23A G35C,0.32
9,G2A C23U A25C U43A,0.15
10,G2C G19C A39U,0
11,G7U U28C C31U U32G,0.01
12,G5A C13A G21U,0.08
13,C3G A25C C37A,0.77
14,C13G G35C G36A,0.03
15,A12G C13U C15A,0.02
16,G5A C23G A24U A39G C42U,0.03
17,A12C C18A G22A C42A G44C,0
18,G1C G30U U34A,0.02
19,G22U G30A U34C G36C,0.02
20,G19U G30U G35C,0.1
21,G2U C13A G40U,0
22,A14U U20A C42U,0.09
23,C3U C8G C15A C23U,0.31
24,C3U C10A G36U C42U G44U,0

row,Variant,self-cleavage
1,A6U C15U U20G A25C,0.05
2,A25C U34C G40C,0.04
3,G5A A6G U9G C13U U32G A41C,0.06
4,C15A A16C G35U,0.01
5,C31U C37A U38A,0.05
6,G7C U9C U20C,0.01
7,C15G G21U C37U,0.02
8,G1U A11C C13A C37A,0.01
9,A11G C15A C42U,0.01
10,A6C U20G G30C U32G,0.09
11,C3A G7U G30A G36U,0.66
12,C13U A14U G19U,0.54
13,G17U G22A G27U,0.22
14,G5U U9G C10A G17A G30A U32A G33C A41C,0.01
15,G2U G29C C37U,0.04
16,A12U C13A A24G G40U,0
17,C10A C18G G36C A41G,0.03
18,C8U C18A A26U G35U G40A,0.02
19,C10A A12C G27A U28A G30A G35C G36A,0.01
20,G2A A6U U9A C18U,0.03
21,G21A A24U C42A,0.67
22,A26G G36C C37G A41C,0.05
23,C13A C15U G21A U32G A41C,0.01
24,C15U G40C A41C,0.1

row,Variant,self-cleavage
1,C8G A14C G17A U34G G36C,0.04
2,A6U G7C G21C G40A,0.16
3,G2U A6U A14U G17U C23U,0
4,G7A G19U C31G G33U,0.11
5,G2A C13A C23A,0.15
6,G5U G27U G36U,0.05
7,G19C U20A A26C G33U,0.21
8,G2C G22A C45A,0.38
9,C10A C45A C46G,0.04
10,C23U A26C G33A C46G,0.68
11,C18U A26G G30U,0.61
12,C13A A24C G33U,0.06
13,C3G C18G G30A,0.04
14,C23U A24G G40U G44C C46G,0.07
15,C15G G33C U38G,0
16,U20C U28A C31G A39U U43A,0.02
17,A16U G19U U28A G36C C45A,0.02
18,A6C C8A C18G G21A G35A,0.04
19,A6U G19A C42G,0.11
20,G1A C10A A14G G29C G33C,0.04
21,C8G G22C G35C U43G,0.02
22,A6C U9G A25C C31G,0.02
23,C3U C10A G17U A25C A26C C31A C45A,0.02
24,A4C C15A G40C,0.35

row,Variant,self-cleavage
1,C3U U20C G40C,0.07
2,U9A U34A G40U,0.04
3,U9A C15G G21A C23A U32G U34G A41U,0.03
4,A12C C18G U32A A41U C42G,0.01
5,A12G C18G C23G G33C,0.05
6,C3A G7C C8A G30U G33C G44C C45G,0.28
7,C10A A11C U20C U28C G44A,0
8,A14G G29U G30A G36C,0.12
9,C10A C13A G30C,0
10,G5U C15G U20A G21C A39C,0.01
11,C8U C31G A39C,0.49
12,C8A U9G A11C U38C,0.01
13,G22C A25U G30A G40A,0.05
14,G2A G7A C15U U34A C46A,0.06
15,A4G G5U C15G C18U A41C C45U,0.01
16,C8A A24G U34G,0.26
17,G1A U9A A12U G19C G29A,0.33
18,C31A G36C A41C G44U,0.02
19,G2U G21U C31A,0.02
20,A11U G22U A25U C31A U32G,0.01
21,G2U A4G G19A G29U G36U C46A,0.02
22,G7A G17A G35U G44A,0.04
23,G5A G21A C23A,0.03
24,C3G A26G G40C A41U,0.04

row,Variant,self-cleavage
1,G27C U32G G44U,0.03
2,A11U A12G C46G,0.05
3,A25U G30A U32C G44C,0.03
4,A4G G17U U38G,0.38
5,G1U G5A A6U C8U A12U G40U C46A,0.06
6,A6U A12G C18A G21A G22C C37U G40C,0.03
7,C10U C18U G36C G40C,0.01
8,G7U A12U A16C G21U G22U C23A U32G,0.01
9,A11U G17A A26G U38C,0
10,C18G G19U G21A C31G G36A C45U,0.01
11,A6C C15G C42U,0.01
12,G7C C13U C15G G21U A39C G44U,0.05
13,U9C C13U A14G G27A,0.02
14,A4U C13A A39G G40A C42G,0.04
15,G2U C3G A4C,0.12
16,G22A A25U G27A U34A U43C C45A,0.04
17,A4G C10G A12C A14U G17A,0.02
18,A11C A25C G33U,0.02
19,C13G C31U C37G,0.04
20,A6C C10G G30C U38A,0.01
21,A6G A12U G19C,0.04
22,C8A C10U A11U U43G,0
23,A11C C37G C42A,0.01
24,G7U A14G C23U,0.35

row,Variant,self-cleavage
1,C8G C13G U32C A41U C46A,0.69
2,G2A G5C C42G,0.17
3,G1A G2C G17U G35A G36C,0.17
4,C10U A11C A16G C18U U20G A39C U43C,0.01
5,C13U G19U G40C,0.03
6,G19A G29U G44A,0.18
7,G5C U9C C37G,0.01
8,G2U G5U C31U U38G,0.01
9,A16C C37U U43A,0.16
10,C8A G22A G36A A41G,0.44
11,G5C U20G G21C C23A A24C,0.01
12,C10G G21A G33C,0.03
13,G1C C23A C45A C46G,0.04
14,C3U A12C G29A,0.04
15,U9C G27U G35U,0.02
16,C13A C15U A16U G29A,0.13
17,C8G A12U C23G G40C C46A,0.02
18,C3U U38A G44A,0.48
19,A25C U43G C45U,1.08
20,A14G C23A A39U,0.07
21,C23A C37G C42G,0
22,G1A G5A G7U G17U C18G,0.18
23,G1C C18A G36A,0.06
24,G2A U9C A11G,0.03

row,Variant,self-cleavage
1,G2A A14C A24C G44A C46A,0.05
2,A6C A25C A26C,0.05
3,G5U A16C G27U C37U,0.07
4,G7A C15G C18A G35U U38A,0.05
5,G7C C10A C18G G35C G36A,0.03
6,A11U C13U A26C G29U,0.05
7,A12G G21U G22A U32C U34C U43C,0.07
8,G30U G35C A39G,0.03
9,C10A G21C C23G C45U,0.05
10,G5U A24C G44C,0.08
11,A4U G35C G36U,0.19
12,G1U U9G C15A G35U C45G,0
13,U9A G29A C46A,0.17
14,A4U C15A G33C U34A,0
15,A12G C37G A41U,0.15
16,A24G A25U G27U,0.19
17,A6G G7U C15A G35U,0.03
18,C8U G19C C42U,0.02
19,A11C G21C C42U C46U,0
20,U9G U34G G44U,0.02
21,C3G A4U G22U G33U,0.12
22,C15U C18U A26G C31G U32G G36A C46A,0.01
23,C18G G22U G27C U32A,0.01
